Results taken from PMC4336329 (PLoS ONE, 2015).
In all, about 310,000 compounds went through this assay and about 14,000 (4.5%) showed an effect of 50% or more. The effect is printed as a negative number. The list shows a part of the results.
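Further: peak tail current of the secondary pulse compared with the same well before compound.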

Each compound was assayed against human ether-à-go-go-related gene (hERG) potassium channel (human, UniProt Q12809) (assay: primary screen, population patch clamp on CHO cells stably expressing hERG).
Chain of human ether-à-go-go-related gene (hERG) potassium channel (Q12809 whole entry, looked up): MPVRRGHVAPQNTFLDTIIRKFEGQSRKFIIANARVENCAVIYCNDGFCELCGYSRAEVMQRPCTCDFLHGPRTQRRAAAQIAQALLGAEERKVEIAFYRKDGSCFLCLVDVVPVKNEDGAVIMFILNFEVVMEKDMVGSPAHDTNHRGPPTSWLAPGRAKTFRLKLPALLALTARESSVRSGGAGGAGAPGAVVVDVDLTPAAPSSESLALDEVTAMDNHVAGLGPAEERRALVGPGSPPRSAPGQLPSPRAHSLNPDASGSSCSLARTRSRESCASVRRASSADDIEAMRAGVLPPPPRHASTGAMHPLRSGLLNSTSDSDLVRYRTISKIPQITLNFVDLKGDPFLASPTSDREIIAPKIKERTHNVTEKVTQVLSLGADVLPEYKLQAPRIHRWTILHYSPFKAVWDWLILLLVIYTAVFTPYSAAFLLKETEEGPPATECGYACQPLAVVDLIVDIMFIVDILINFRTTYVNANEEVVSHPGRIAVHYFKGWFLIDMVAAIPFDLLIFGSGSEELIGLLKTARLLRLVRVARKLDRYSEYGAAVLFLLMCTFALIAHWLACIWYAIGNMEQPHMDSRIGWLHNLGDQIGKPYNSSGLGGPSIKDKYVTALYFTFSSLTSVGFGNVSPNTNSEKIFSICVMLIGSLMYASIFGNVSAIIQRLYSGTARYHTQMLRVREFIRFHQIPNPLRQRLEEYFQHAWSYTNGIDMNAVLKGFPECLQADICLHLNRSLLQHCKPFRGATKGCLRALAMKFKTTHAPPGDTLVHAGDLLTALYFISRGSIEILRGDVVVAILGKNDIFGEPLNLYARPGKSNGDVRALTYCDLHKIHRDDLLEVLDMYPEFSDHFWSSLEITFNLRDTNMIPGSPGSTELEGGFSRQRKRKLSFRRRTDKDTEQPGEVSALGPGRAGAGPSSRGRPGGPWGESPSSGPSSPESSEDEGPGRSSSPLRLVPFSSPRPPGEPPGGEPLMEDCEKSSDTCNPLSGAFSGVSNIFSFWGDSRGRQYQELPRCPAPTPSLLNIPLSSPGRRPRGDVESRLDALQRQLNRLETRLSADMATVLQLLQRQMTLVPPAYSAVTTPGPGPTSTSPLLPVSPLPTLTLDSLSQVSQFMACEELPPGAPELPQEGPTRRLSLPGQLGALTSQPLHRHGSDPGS
`COc1ccc(NC(=O)CSc2nnc(-c3cc(C)[nH]n3)n2N)cc1` was tested, and the “hERG current change (%, negative = inhibition) at 10uM” value was 19.9%. With `CCCC(C)NC(=O)/C=C/c1cccc([N+](=O)[O-])c1` (centres unmarked) the “hERG current change (%, negative = inhibition) at 10uM” value was -7.16%. `C[C@@H]1CC=C[C@H]2[C@H]1C(=O)N(Cc1ccccc1)[C@H]2c1ccc(-c2cc3ccccc3s2)cc1F` was tested, and the “hERG current change (%, negative = inhibition) at 10uM” value was 4.46%. `CCCCN(C(=O)C1CC(=O)N(Cc2ccc(C)cc2)C1)c1c(N)n(CC(C)C)c(=O)[nH]c1=O` (centres unmarked) was tested, and the “hERG current change (%, negative = inhibition) at 10uM” value was 7.76%. With `COc1ccc(CC(=O)OCCN(C)C)cc1.Cl` the “hERG current change (%, negative = inhibition) at 10uM” value was 11.8%. For `Cc1sc2nc(CN(C(=O)NCc3ccccc3)C3CCCC3)[nH]c(=O)c2c1C`, the “hERG current change (%, negative = inhibition) at 10uM” value was -4.47%. With `O=c1[nH]c(CSc2nc3ccccc3s2)nc2ccccc12` the “hERG current change (%, negative = inhibition) at 10uM” value was 2.6%. With `Cc1nn(Cc2ccc(Cl)c(Cl)c2)c(C)c1NC(=O)c1cc(-c2ccco2)on1` the “hERG current change (%, negative = inhibition) at 10uM” value was 0.359%. For `Cc1cc(C(=O)CN2C(=O)NC3(CCCc4ccccc43)C2=O)c(C)n1C` (centres unmarked), the “hERG current change (%, negative = inhibition) at 10uM” value was -13.5%. For `O=S(=O)(c1cc(Br)ccc1Br)N1CCCCCC1`, the “hERG current change (%, negative = inhibition) at 10uM” value was -8.75%. `OC(CNCCNc1ncccc1C(F)(F)F)Cn1ccc2ccccc21` (centres unmarked) was tested, and the “hERG current change (%, negative = inhibition) at 10uM” value was -45.3%. For `CCOC(=O)c1[nH]c(C)c(C(=O)NC2CCCCCC2)c1C`, the “hERG current change (%, negative = inhibition) at 10uM” value was 0.467%. In the case of `N#CCC(=O)Nc1ccc(C(=O)OCC(=O)NCCCc2ccccc2)cc1`, the “hERG current change (%, negative = inhibition) at 10uM” value is reported as 15.1%. In the case of `O=C(CSc1nc2ccccc2s1)N/N=C/c1cc([N+](=O)[O-])ccc1O`, the “hERG current change (%, negative = inhibition) at 10uM” value is reported as 18.5%. For `COc1ccc(C(C[N+](=O)[O-])n2nc(C)cc2C)cc1` (centres unmarked), the “hERG current change (%, negative = inhibition) at 10uM” value was 19.1%. In the case of `COC(=O)c1ccccc1NC(=O)CN(c1c(C)cccc1C)S(C)(=O)=O`, the “hERG current change (%, negative = inhibition) at 10uM” value is reported as 10.1%. For `CCOC(=O)[C@H]1[C@H]2COc3ccc(OC)cc3[C@@H]2N2C(=O)c3cc(OC)c(OC)cc3NC(=O)[C@@]12C`, the “hERG current change (%, negative = inhibition) at 10uM” value was -4.71%. In the case of `O=C(CCC(=O)N(CC(=O)NC1CCCC1)Cc1ccc2c(c1)OCO2)Nc1nccs1`, the “hERG current change (%, negative = inhibition) at 10uM” value is reported as 5.18%. `COc1ccccc1N1CCN(CCCCCCOc2ccc(F)cc2)CC1` was tested, and the “hERG current change (%, negative = inhibition) at 10uM” value was -67.2%. With `Cc1[nH]c2c(C)cccc2c1CC(=O)O` the “hERG current change (%, negative = inhibition) at 10uM” value was 12.9%. With `Cc1[nH]c2ccccc2c1C(=O)C(=O)N1CCN(c2ccccc2Cl)CC1` the “hERG current change (%, negative = inhibition) at 10uM” value was 3.63%. In the case of `CCC(CC)C(=O)c1c[nH]c(C(=O)NCCc2ccccn2)c1`, the “hERG current change (%, negative = inhibition) at 10uM” value is reported as 6.03%. With `COC/C=C/C1=CC2=CC(=O)C(C)(OC(=O)c3cnc4ccccc4n3)C(=O)C2=CN1CCCCO` (centres unmarked) the “hERG current change (%, negative = inhibition) at 10uM” value was 2.04%. In the case of `CCN(CC)C(=O)c1ccc(O)c(OC)c1`, the “hERG current change (%, negative = inhibition) at 10uM” value is reported as 34.6%. With `COc1cc(/C=C2\C=CC(=O)O2)cc(OC)c1` the “hERG current change (%, negative = inhibition) at 10uM” value was 4.84%. For `Cc1ccc(-c2noc(CCCC(=O)NC3CCCC3)n2)cc1`, the “hERG current change (%, negative = inhibition) at 10uM” value was -8.35%. `CCN(CC)CC.CN1C(=O)/C(=C2/C=Cc3ccccc3N2CCCS(=O)(=O)O)SC1=S` was tested, and the “hERG current change (%, negative = inhibition) at 10uM” value was -2.53%. In the case of `O=C(N1CCOCC1)C(F)(F)C(=O)N1CCOCC1`, the “hERG current change (%, negative = inhibition) at 10uM” value is reported as -1.29%. For `COC(=O)c1ccc(NC(=S)N2CCCC2)cc1`, the “hERG current change (%, negative = inhibition) at 10uM” value was 19.5%. In the case of `COc1ccnc(Oc2cccc(C(F)(F)F)c2)c1C(=O)N/C=N/OCc1ccccc1F`, the “hERG current change (%, negative = inhibition) at 10uM” value is reported as 14.3%. For `O=C(O)c1cc2ccc3ccccc3c2[nH]1`, the “hERG current change (%, negative = inhibition) at 10uM” value was 1.56%. With `CCOC(=O)c1cc(=O)n(Cc2ccccc2C)c2ccccc12` the “hERG current change (%, negative = inhibition) at 10uM” value was -43.2%. With `CC(C)(C)NC(=O)COc1ccccc1C#N` the “hERG current change (%, negative = inhibition) at 10uM” value was 37.6%. In the case of `COc1ccc(NC(=O)CSc2nnc(-c3ccccc3)n2Cc2ccco2)c(OC)c1`, the “hERG current change (%, negative = inhibition) at 10uM” value is reported as -26.4%. With `CCC(=O)NCCCCCCCCCNC(=O)CC` the “hERG current change (%, negative = inhibition) at 10uM” value was 16.1%. `CCN1C(=O)C(=O)N(CC(=O)Nc2ccccc2Oc2ccccc2)C1=O` was tested, and the “hERG current change (%, negative = inhibition) at 10uM” value was 21.9%. In the case of `CCOC(=O)N1CCN(C(=O)Cn2cc3c(n2)CCCC3)CC1`, the “hERG current change (%, negative = inhibition) at 10uM” value is reported as -72.4%. `O=C(Cc1ccc(Cl)cc1)NCCS(=O)(=O)N1CCN(c2ccccc2)CC1` was tested, and the “hERG current change (%, negative = inhibition) at 10uM” value was -3.36%. In the case of `Cc1cc(C)c(C2=Nn3c(C)nnc3SC2C)cc1C` (centres unmarked), the “hERG current change (%, negative = inhibition) at 10uM” value is reported as 5.85%. `O=C(CN(Cc1ccccc1F)C(=O)c1csnn1)NC1CCCCC1` was tested, and the “hERG current change (%, negative = inhibition) at 10uM” value was 6.81%. With `CCOc1ccc(OCCNC(=O)C(NC(=O)c2c(F)cccc2F)C(C)C)cc1` (centres unmarked) the “hERG current change (%, negative = inhibition) at 10uM” value was -10.6%. With `COc1ccc(OC)c(Cc2nnc(CCC(=O)NC3CCCCCCC3)o2)c1` the “hERG current change (%, negative = inhibition) at 10uM” value was -9.71%. With `CC(C)NC(=O)NC(=O)COC(=O)c1cccc(OC(F)F)c1` the “hERG current change (%, negative = inhibition) at 10uM” value was 10.6%. In the case of `NCCCNC(=O)c1cc2ccccc2[nH]1`, the “hERG current change (%, negative = inhibition) at 10uM” value is reported as 5.31%. In the case of `O=C(CCNC(=O)C1CCN(S(=O)(=O)c2ccccc2)CC1)NCc1cccc(C(F)(F)F)c1`, the “hERG current change (%, negative = inhibition) at 10uM” value is reported as -26.1%. With `Cc1nnc(SCC(N)=O)n1CC1CCCO1` (centres unmarked) the “hERG current change (%, negative = inhibition) at 10uM” value was 3.55%. `Cc1ccccc1COC[C@H](CC(C)C)N1CCN(C(=O)c2cccc(C(F)(F)F)c2)CCC1=O` was tested, and the “hERG current change (%, negative = inhibition) at 10uM” value was -11.3%. `CC(Sc1nnc2ccccn12)C(=O)NCc1ccc2c(c1)OCO2` (centres unmarked) was tested, and the “hERG current change (%, negative = inhibition) at 10uM” value was 4.95%. With `O=C(CN1C(=O)/C(=C\c2cccs2)SC1=S)Nc1cccc(C(=O)O)c1` the “hERG current change (%, negative = inhibition) at 10uM” value was 13.5%. For `COc1ccc(-c2csc(NC(=O)c3cc(-c4cccs4)nc4ccccc34)n2)c(OC)c1`, the “hERG current change (%, negative = inhibition) at 10uM” value was 3.25%. For `C/C(CCN1CCc2nc(-c3ccccc3)c(-c3ccccc3)cc2C1)=N\O[C@H](C)c1cn([C@H](CO)Cc2ccccc2)nn1`, the “hERG current change (%, negative = inhibition) at 10uM” value was -17.7%. For `CC(C)NC(=O)c1ccccc1S(=O)(=O)c1ccccc1C#N`, the “hERG current change (%, negative = inhibition) at 10uM” value was 5.28%. For `CCOc1cc(/C=N/Nc2nc(Nc3ccccc3)nc(N3CCCCC3)n2)ccc1OCC(=O)O`, the “hERG current change (%, negative = inhibition) at 10uM” value was 1.61%. For `COc1ccc(C(=O)OCC(=O)N2C(C)CCCC2C)cc1[N+](=O)[O-]` (centres unmarked), the “hERG current change (%, negative = inhibition) at 10uM” value was -6.13%. In the case of `O=C(CSc1nc(O)cc(=O)n1-c1ccccc1)Nc1nc2ccccc2s1`, the “hERG current change (%, negative = inhibition) at 10uM” value is reported as 16%. In the case of `C/C(CC(=O)NC1CCCCCC1)=N\NC(=O)c1cnccn1`, the “hERG current change (%, negative = inhibition) at 10uM” value is reported as 2.01%.
